The results in this text go back to US6737241B2, “Methods for screening for transdominant intracellular effector peptides and RNA molecules” (Rigel Pharmaceuticals, Inc., priority 1996, dated 2004).

In the experiment the test system is Jurkat EcoR cells. Put plainly: IgM anti-Fas (CH-11) selection of retrovirus-transduced Jurkat cells. The following applies: 10 ng/ml CH-11, 5 days, then 10 days after addition of RPMI/20% FCS. How it is done:
A sterile Acrodisc 0.45 micron syringe filter (Gelman Sciences) was attached to the end of a 10 ml sterile syringe and the injection stopper sterilely removed from the syringe barrel. At 48 hours post-transfection, the virus supernatant was removed from the Phoenix cells and added to the syringe barrel. The stopper was replaced and the virus supernatant was ejected dropwise into a clean, sterile conical tube. The Phoenix cell plates were set aside for X-Gal staining (see below). Polybrene was added to each viral supernatant (Sigma; 2.5 mg/ml in ddH20=500×; store at −20° C.) to a final concentration of 5 mg/ml. 4.5×10^6 Jurkat EcoR cells (Jurkat cells stably expressing the ecotropic retrovirus receptor) were pelleted for 1400 rpm for five min and resuspended in 9 mls of the OL-2 library virus supernatant. The cells were distributed in aliquots of 1 ml, or 5×10^5 cells, into the wells of a 24 well plate. 1.5×10^6 Jurkat EcoR cells were similarly treated with 3 mls each of the lacZ viral supernatant and the OL-1 viral supernatant. Each cell plate was wrapped in parafilm, placed in a microplate carrier (DuPont) and centrifuged at 2500 rpm for 90 min at 32° C. in a DuPont/Sorvall RT 6000B table top centrifuge. After centrifugation, the cells were observed under a microscope. […] The parafilm was removed from the plates, which were placed at 32° C. […]

On to MGKRKGDEVDGVGPP [OL-1], for which the “cell survival / live colonies after IgM anti-Fas treatment” value is listed as “nearly every well of the OL-1-transduced cells contained live colonies of cells”.
